Results from PubChem BioAssay AID1452 (National Center for Advancing Translational Sciences (NCATS), 2008).
Out of some 150,000 compounds screened, about 190 (0.13%) were called active. The inconclusive results got no clear call from the source; some entries with a clear call stand among them for comparison. Calls come from the whole dose curve; as a rule, active = well fitted inhibition curve with a large enough effect; inconclusive = small, poorly fitted or top-dose-only effect; inactive = flat fitted curve, though single readings scatter. A potency beside an inconclusive call is a rough fit, not a confirmed value.

target: Polyunsaturated fatty acid lipoxygenase ALOX12 (Homo sapiens) (UniProt P18054); experiment: qHTS Assay for Inhibitors of 12-hLO (12-human lipoxygenase); conditions: purified 12-hLO, xylenol orange hydroperoxide absorbance; series mostly up to 57.1 µM; note: nearly all actives have a fitted effect of over 55% in size
Sequence of UniProt P18054 (P18054 whole entry, looked up): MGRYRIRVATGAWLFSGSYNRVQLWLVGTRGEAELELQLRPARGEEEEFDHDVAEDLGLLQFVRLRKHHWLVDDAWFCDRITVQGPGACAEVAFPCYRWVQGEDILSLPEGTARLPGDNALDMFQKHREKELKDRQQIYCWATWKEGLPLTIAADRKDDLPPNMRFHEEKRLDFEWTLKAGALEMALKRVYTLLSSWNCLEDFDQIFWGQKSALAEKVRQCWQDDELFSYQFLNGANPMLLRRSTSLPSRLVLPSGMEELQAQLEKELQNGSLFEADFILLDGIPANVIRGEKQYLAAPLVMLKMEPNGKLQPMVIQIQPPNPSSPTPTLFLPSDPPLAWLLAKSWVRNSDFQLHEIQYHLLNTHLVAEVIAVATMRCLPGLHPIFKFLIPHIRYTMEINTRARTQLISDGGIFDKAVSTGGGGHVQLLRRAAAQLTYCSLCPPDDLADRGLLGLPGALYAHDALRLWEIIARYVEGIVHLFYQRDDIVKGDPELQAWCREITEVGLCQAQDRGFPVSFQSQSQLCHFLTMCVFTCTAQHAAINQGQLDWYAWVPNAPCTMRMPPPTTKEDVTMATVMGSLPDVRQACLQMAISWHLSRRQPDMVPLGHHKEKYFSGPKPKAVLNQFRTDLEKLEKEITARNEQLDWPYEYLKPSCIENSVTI
Method in brief: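 Lipoxygenase turnover measured by absorbance at 573 and 405 nm after Fe-XO development. Human 12hLO 150 nM, arachidonate 40 uM, pH 7.0 Hepes buffer with detergent; 15 min compound preincubation, 30 min reaction.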
% is set by controls: 0 for no effect and ±100 for the full control effect; potency is the fitted concentration of half-maximal effect; tags give direction and shape of the fitted curve.

Row | Compound | Potency | activity change, negative = inhibition
1 | Cc1ccc(C(=O)NC(=S)Nc2cccc(NC(=O)c3ccccc3)c2)cc1[N+](=O)[O-] | inconclusive: 35.5 µM [inhibitor, single point] | 
2 | Cc1c(Cl)cccc1N=Cc1ccc([N+](=O)[O-])s1 | inactive | 
3 | Cc1ccn2c(-c3csc(NCc4ccccc4)n3)c(C)nc2c1 | inconclusive: 35.5 µM [inhibitor, single point] | 
4 | Cc1ccc(Nc2nc(N)nc(CC#N)n2)cc1 | inactive | 
5 | CCCC(=O)N(c1ccc2oc(=O)sc2c1)S(=O)(=O)c1ccccc1 | inconclusive: 15.8 µM [inhibitor, partial curve] | 
6 | CC(=O)c1ccc(OCCCC(=O)NC2=NCCS2)cc1 | inconclusive: 3.16 µM [inhibitor, partial curve] | 
7 | CCOC(=O)C1=C(C)NC(=S)N(C(C)=O)C1c1ccccc1 (configuration not stated) | inactive | 
8 | CC(C)(CO)[C@H](O)C(=O)NCCC(=O)O | inactive | 
9 | CC(C)C(C(=O)O)N1C(=O)/C(=C/C=C/c2ccco2)SC1=S (configuration not stated) | inconclusive: 28.2 µM [inhibitor, single point] | 
10 | COc1ccc(-c2nc3cnc(OC)nc3n(Cc3cccs3)c2=O)cc1 | inactive | 
11 | COC/C=C/C1=CC2=CC(=O)C(C)(OC(=O)c3cnc4ccccc4n3)C(=O)C2=CN1Cc1ccc2c(c1)OCO2 (configuration not stated) |  | inactive: -6.34% [at 11.4 µM]
12 | S=c1[nH]ncn1/N=C/c1ccccc1 | inactive | 
13 | Oc1ccc(-c2nc(=S)[nH][nH]2)cc1 | inconclusive: 31.6 µM [inhibitor, single point] | 
14 | Nc1cc(-c2ccccc2)nn1S(=O)(=O)c1ccc(Br)cc1 | inconclusive: 3.98 µM [inhibitor, single point] | 
15 | N#C/C=C\Oc1ccc(Cl)cc1N | active: 22.4 µM | 
16 | O=C(NC12CC3CC(CC(C3)C1)C2)c1ccccc1O | inconclusive: 0.891 µM [inhibitor, full curve, poor fit] | 
17 | CCOC(=O)NC1(Nc2ccc(Cl)cn2)Oc2ccccc2O1 | inconclusive: 10 µM [inhibitor, partial curve] | 
18 | COc1cc2c3nnc(-c4ccc(F)cc4)c-3cn(Cc3ccc(C)cc3)c2cc1OC | inconclusive: 35.5 µM [inhibitor, single point] | 
19 | Cn1c(=O)c2c(nc(CN3CCC(C(N)=O)CC3)n2Cc2c(Cl)cccc2Cl)n(C)c1=O | inactive | 
20 | Cc1ccccc1NC(=S)NCc1ccc2c(c1)cc(C)n2C | inconclusive: 25.1 µM [inhibitor, single point] | 
21 | C=CCN1C(=O)/C(=C2/Sc3ccccc3N2CCCS(=O)(=O)O)SC1=S | inconclusive: 25.1 µM [inhibitor, single point] | 
22 | CC(C)COc1ccc(CNC(=S)N/N=C/c2ccc([N+](=O)[O-])cc2)cc1 | inconclusive: 28.2 µM [inhibitor, single point] | 
23 | Nc1nnc(N2CCCCCC2)s1 | inactive | 
24 | CCCCSC1=N/C(=C/c2ccsc2)C(=O)N1c1ccccc1 | inactive | 

Row | Compound | Potency | activity change, negative = inhibition
25 | O=C1c2ccccc2NC(c2ccc(-c3ccc(Br)cc3)o2)N1O (configuration not stated) | inconclusive: 7.94 µM [inhibitor, partial curve] | 
26 | O=C(O)C1=CC(=C(c2ccc(O)c(C(=O)O)c2)c2ccc(O)c(C(=O)O)c2)C=CC1=O | inconclusive: 11.2 µM [inhibitor, partial curve] | 
27 | O=C(Nc1nccs1)C(=O)c1c[nH]c2ccccc12 | inactive | 
28 | O=[N+]([O-])c1cccc(/C=N/n2c(COc3ccccc3)n[nH]c2=S)c1 | inconclusive: 8.91 µM [inhibitor, partial curve] | 
29 | Fc1ccc(N2CCN(C(c3cccs3)c3nnnn3CCc3ccccc3)CC2)cc1 (configuration not stated) | inactive | 
30 | Cc1ccc(C)c(N/N=C2\CCCNC2=O)c1 | inconclusive: 0.708 µM [inhibitor, full curve] | 
31 | N#Cc1cc2c([nH]c1=S)CCCCCC2 | inconclusive: 14.1 µM [inhibitor, partial curve] | 
32 | Cc1ccccc1CN1CCNC(=O)C1CC(=O)O (configuration not stated) | inactive | 
33 | COCCCNC(=O)COc1ccc(Br)cc1Cl | inactive | 
34 | O=C(CSc1nnc(-c2ccco2)c(-c2ccco2)n1)Nc1ccccc1 | inconclusive: 12.6 µM [inhibitor, partial curve] | 
35 | O=C(NC(NC(=S)Nc1ccc(Cl)c(Cl)c1)C(Cl)(Cl)Cl)c1ccco1 (configuration not stated) | inconclusive: 35.5 µM [inhibitor, single point] | 
36 | CCCCn1c(NC(=O)c2ccccc2)c(C#N)c2nc3ccccc3nc21 | inconclusive: 25.1 µM [inhibitor, partial curve] | 
37 | Cc1ccc(C)c(Oc2coc3cc(OCC(=O)Nc4ccccc4C(C)C)ccc3c2=O)c1 | inactive | 
38 | Cc1cccc(NC(=S)NC2CCCC2)c1 | inconclusive: 25.1 µM [inhibitor, single point] | 
39 | Cc1ccc2oc(-c3cccc(NC(=S)NC(=O)c4cccs4)c3)nc2c1 | inactive | 
40 | CCc1cc(-c2[nH]ncc2-c2ccc3c(c2)OCO3)c(O)cc1O | inconclusive: 20 µM [inhibitor, partial curve] | 
41 | O=C(COc1ccc(Cl)cc1Cl)NCCCn1ccnc1 | inconclusive: 12.6 µM [inhibitor, partial curve] | 
42 | COc1cc(CNc2ccc(O)cc2)cc(Br)c1OCc1ccccc1F | inconclusive: 10 µM [inhibitor, partial curve] | 
43 | Cc1ccc(C2CC(=O)NC(SCc3ccccc3)=C2C#N)o1 (configuration not stated) | inconclusive: 20 µM [inhibitor, partial curve] | 
44 | CN(CC(=O)Nc1ccc(Cl)cc1)CC(=O)Nc1ccc(F)c(F)c1F | inconclusive: 35.5 µM [inhibitor, single point] | 
45 | CCOc1cc(-c2c(C#N)c(N)nc3c2CCc2ccccc2-3)ccc1O | inconclusive: 20 µM [inhibitor, single point] | 
46 | COc1cc(/C=C(/C#N)c2nc3ccccc3[nH]2)ccc1OCc1ccc(C(=O)O)o1 | inconclusive: 20 µM [inhibitor, partial curve] | 
47 | COCCn1c(C)cc(C2=NNC(=Nc3ccc(OC)cc3)SC2)c1C | inconclusive: 22.4 µM [inhibitor, partial curve] | 
